Experimental data from the supplement of paper PMC10126150.
Values marked as one replicate rest on one cluster of the flow cell; about a third of the high ones do not repeat.

Each sequence was assayed on ATP (assay: switch fluorescence ratio, 500 uM ATP over buffer (Cy3 cluster intensity, sum of 5 cycles each) (fold (ratio)); higher = stronger signal-on switching upon ATP binding; sequences stand for … in TCGTCGGCAGCGTCAGATGTGTATAAGAGACAGTTTTTTTTTTTTTTTTTTTTTTTTT…TC). Conditions: aptamer strand: ATP DNA aptamer (quencher-CACCTGGGGGAGTATTGCGGAGGAAGG + anchor), 100 nM annealed; ATP concentration: 500 uM; one replicate.
Method in brief: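 After annealing to 100 nM quencher-labelled ATP aptamer, Cy3-labelled switching-strand clusters on a modified Illumina MiSeq flow-cell were imaged in selection buffer. A second image followed after 15 min with 500 uM ATP at 22 °C, and five such buffer/ATP cycles were done, each separated by NaOH stripping and re-annealing. The fluorescence ratio, averaged per switch-domain sequence, is summed target-cycle over summed buffer-cycle Cy3 intensity per cluster, with clusters outside 100-1000 RFU excluded.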
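Also: ATP exposure 15 min at 22 °C before imaging.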

Sequence | switch fluorescence ratio
GGAAGTGGAG | 0.973
GGAATATCAA | 1.01
GGAATCGTCC | 1.12
GGAATGGTGT | 1.03
GGAATTAACC | 0.999
GGAATTATAG | 1.02
GGAATTCGTG | 0.986
GGACAAAAAG | 0.982
GGACAAAGAT | 0.981
GGACAACACA | 1.1
GGACACTATG | 1.02
GGACATAAAA | 1.01
GGACATCTAG | 1
GGACATT | 0.972
GGACCATGCG | 1.26
GGACCATGGA | 1.02
GGACCATTCG | 1.01
GGACCCCTTG | 0.976
GGACCGGGGC | 0.987
GGACCTTGCC | 1.8
GGACCTTTAG | 0.99
GGACGAAAAC | 1.01
GGACGATTGT | 0.94
GGACGCCCAT | 1.01
GGACGCGCGT | 1.04

Sequence | switch fluorescence ratio
GGACGCTTAG | 1.02
GGACGGAGAG | 1.04
GGACGGAGCT | 1.76
GGACGGGTAG | 1.04
GGACGGGTCT | 1.01
GGACGTGTCT | 1.01
GGACGTTAGC | 1.02
GGACTAAACT | 0.998
GGACTAAATT | 1.48
GGACTACGGT | 1.01
GGACTC | 1.06
GGACTCCCAA | 1.88
GGACTCCTAC | 1.46
GGACTCTTTG | 1.03
GGACTGACCC | 1.14
GGACTGGCTG | 0.972
GGACTTAATT | 1
GGACTTACAG | 1.04
GGACTTATTA | 0.983
GGAGAAATAC | 4.16
GGAGAAATCC | 1.21
GGAGAACCGG | 1.02
GGAGAGCTAG | 1.02
GGAGAGGGAT | 0.982
GGAGATCCCG | 0.989

Sequence | switch fluorescence ratio
GGAGCATATG | 1.52
GGAGCGACTC | 1.48
GGAGCTTCTT | 1.03
GGAGGACGCA | 1.21
GGAGGCTACG | 1.05
GGAGGGAAGT | 1
GGAGGGGAAC | 1.17
GGAGGGGCTA | 0.995
GGAGGGTATG | 1.02
GGAGGGTCGT | 0.92
GGAGTAAACA | 1.02
GGAGTACGTC | 1.02
GGAGTACTTT | 0.985
GGAGTAGCGG | 1.08
GGAGTGGGG | 1.01
GGAGTGGGGT | 0.978
GGAGTTCGTA | 0.94
GGAGTTGGAG | 1.01
GGATAAAAC | 0.992
GGATAAATTG | 1.02
GGATAATCTT | 0.984
GGATACAGGA | 1.04
GGATAGGATA | 1.04
GGATATGGTC | 0.967
GGATATGTCC | 0.992

Sequence | switch fluorescence ratio
GGATATTCGG | 1
GGATCACGGG | 0.978
GGATCAGAGG | 0.975
GGATCAGCTT | 1.01
GGATCCAATT | 1
GGATCTCAAG | 0.997
GGATGACAAG | 1.05
GGATGACCAA | 0.99
GGATGCTGCT | 1.42
GGATGGAGG | 1.04
GGATGGCCTG | 1.01
GGATGGGCGC | 1
GGATTAGTAA | 0.995
GGATTATGGT | 0.978
GGATTCAGAT | 0.973
GGATTCATGT | 1.02
GGATTCCTCA | 1
GGATTGCTGG | 0.978
GGATTGGGCT | 1.13
GGATTGTTAA | 0.99
GGATTTAAGC | 0.95
GGATTTACAA | 0.98
GGATTTATTC | 1.04
GGATTTCAT | 1
GGATTTGTAG | 0.978

Sequence | switch fluorescence ratio
GGATTTGTGC | 0.961
GGATTTGTT | 0.963
GGCAAAATTT | 0.988
GGCAAACGCG | 0.979
GGCAAAGATG | 0.972
GGCAAAGTGC | 1.01
GGCAACGTCA | 1.01
GGCAAGTATG | 1
GGCAATGGCG | 1.03
GGCACAGGAT | 0.968
GGCACAGGTC | 1.08
GGCACCAAAT | 0.999
GGCACCCATA | 1.02
GGCACGGATT | 1.04
GGCACGTTGC | 1.05
GGCAGACACG | 1.04
GGCAGCCCCC | 1.05
GGCAGTTAGG | 1.04
GGCAGTTCCA | 0.984
GGCATAGGAG | 1.04
GGCATTATTG | 0.986
GGCATTGGTG | 1.03
GGCATTGTAG | 0.997
GGCCAAAACT | 1.01
GGCCAAACGG | 0.984

Sequence | switch fluorescence ratio
GGCCAAATT | 0.979
GGCCAACGAG | 1.04
GGCCACATAA | 1.01
GGCCAGCATG | 1
GGCCATAATC | 0.986
GGCCATAGCG | 0.983
GGCCATAGGA | 0.994
GGCCCATGAA | 1.05
GGCCCCGAT | 1.01
GGCCCGAACT | 1.01
GGCCCGTCAG | 0.976
GGCCCTAAAA | 1.02
GGCCCTAGAT | 0.969
GGCCCTATGG | 1.06
GGCCCTTCTG | 1
GGCCCTTGTT | 1.02
GGCCGCATTG | 1.66
GGCCGGAGGA | 0.995
GGCCTACTGG | 1
GGCCTACTGT | 1.02
GGCCTAGAAG | 1.02
GGCCTCGCAG | 1.17
GGCCTTAGTG | 0.968
GGCCTTGTTC | 0.98
GGCGAACTCG | 1.27

Sequence | switch fluorescence ratio
GGCGAAGCAG | 0.988
GGCGAATAGA | 1.04
GGCGAATGTA | 0.944
GGCGATTTGC | 1.01
GGCGCTGATG | 1.02
GGCGCTGCGG | 1.02
GGCGCTTAGT | 0.959
GGCGGAACGA | 0.965
GGCGGCGCCC | 1.02
GGCGGCTATC | 0.975
GGCGGTCGGC | 0.946
GGCGGTGTCA | 0.965
GGCGTAACGG | 1.02
GGCGTACATG | 1.02
GGCGTACTAA | 1.01
GGCGTAGAC | 1.01
GGCGTGATTT | 1.03
GGCGTTGAAT | 1.05
GGCTAAAGA | 0.991
GGCTAACCGT | 0.978
GGCTACGTAT | 1.08
GGCTAGCCGT | 0.973
GGCTATTCGG | 0.989
GGCTCAAAGA | 0.969
GGCTCAAGG | 0.984

Sequence | switch fluorescence ratio
GGCTCACTTG | 1.03
GGCTCCATTT | 0.993
GGCTCCTATT | 0.978
GGCTCTCTAT | 0.968
GGCTGACTCG | 1.04
GGCTGATATA | 1.02
GGCTGCAATT | 1.69
GGCTGCCAAT | 1.05
GGCTGGGTCC | 0.959
GGCTGTAGTG | 1.01
GGCTGTGCGT | 0.97
GGCTGTTTCG | 0.946
GGCTTACTGA | 1.02
GGCTTAGACT | 1.01
GGCTTAGAG | 0.936
GGCTTATAGT | 1.01
GGCTTATCGG | 0.985
GGCTTATTGC | 0.907
GGCTTCAACG | 1.03
GGCTTCATTG | 1
GGCTTGAGAC | 1.02
GGCTTGGTTT | 0.975
GGCTTTGGGC | 1
GGCTTTGTTG | 1.01
GGGAAAGCAG | 0.998
